Measured values as given in paper PMC4336329 (PLoS ONE, 2015).
The whole screen tested about 310,000 compounds, of which about 14,000 (4.5%) showed an effect of 50% or more. Effects have a minus sign here. This is one part of the list.

target: human ether-à-go-go-related gene (hERG) potassium channel (human, UniProt Q12809); experiment: primary screen, population patch clamp on CHO cells stably expressing hERG
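Also: peak tail current of the secondary pulse compared with the same well before compound.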

Sequence of human ether-à-go-go-related gene (hERG) potassium channel (Q12809 whole entry, looked up): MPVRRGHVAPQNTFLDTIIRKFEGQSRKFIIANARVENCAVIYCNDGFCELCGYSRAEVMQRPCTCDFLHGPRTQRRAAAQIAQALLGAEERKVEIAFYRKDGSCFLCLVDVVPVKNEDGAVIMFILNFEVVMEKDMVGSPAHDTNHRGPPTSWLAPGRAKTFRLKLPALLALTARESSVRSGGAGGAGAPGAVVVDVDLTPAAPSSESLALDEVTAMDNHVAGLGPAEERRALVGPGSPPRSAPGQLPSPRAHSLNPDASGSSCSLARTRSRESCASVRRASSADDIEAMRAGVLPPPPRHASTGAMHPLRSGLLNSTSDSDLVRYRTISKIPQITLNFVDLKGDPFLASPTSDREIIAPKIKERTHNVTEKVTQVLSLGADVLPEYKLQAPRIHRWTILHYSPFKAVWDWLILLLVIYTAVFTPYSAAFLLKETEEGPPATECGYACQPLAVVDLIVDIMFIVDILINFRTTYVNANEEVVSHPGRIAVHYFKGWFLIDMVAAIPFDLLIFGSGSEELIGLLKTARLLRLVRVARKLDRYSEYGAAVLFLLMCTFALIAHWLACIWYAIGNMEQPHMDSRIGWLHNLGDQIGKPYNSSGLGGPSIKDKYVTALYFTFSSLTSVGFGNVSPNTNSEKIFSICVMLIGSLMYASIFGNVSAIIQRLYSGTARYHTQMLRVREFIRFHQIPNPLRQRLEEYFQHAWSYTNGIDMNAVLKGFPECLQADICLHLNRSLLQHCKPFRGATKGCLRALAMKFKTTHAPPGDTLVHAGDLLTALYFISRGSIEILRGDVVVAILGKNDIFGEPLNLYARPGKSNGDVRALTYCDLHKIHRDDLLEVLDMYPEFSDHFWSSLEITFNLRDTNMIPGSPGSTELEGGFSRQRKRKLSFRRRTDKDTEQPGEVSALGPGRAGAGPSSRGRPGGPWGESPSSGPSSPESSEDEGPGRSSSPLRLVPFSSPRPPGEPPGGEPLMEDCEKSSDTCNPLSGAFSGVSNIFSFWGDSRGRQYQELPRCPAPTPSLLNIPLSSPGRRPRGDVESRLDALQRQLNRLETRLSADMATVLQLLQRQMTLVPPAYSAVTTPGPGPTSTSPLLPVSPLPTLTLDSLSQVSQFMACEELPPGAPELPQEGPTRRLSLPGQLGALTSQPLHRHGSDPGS

Row | SMILES | hERG current change (%, negative = inhibition) at 10uM [%]
1 | Cc1ccc(NC(=O)CN2C(=O)S/C(=C\c3ccccn3)C2=O)cc1C | 14.4
2 | Cl.O=C(C1CCC1)N1CCN(Cc2ccccc2)CC1 | 8.14
3 | COc1ccc(NC(=O)CN(C)C(=O)c2cn(-c3ccccc3)nc2-c2cccnc2)cc1 | -24.2
4 | C=CCN(C(=O)c1csnn1)C(C(=O)NCc1ccc(F)cc1)c1ccccc1F (centres unmarked) | -11.7
5 | Cc1ccc(C)c(NC(=O)C2CCCN2C(=O)NC2CCCCC2)c1 (centres unmarked) | 22.6
6 | CCOC(=O)NC(=O)C(=CNc1ccc(C)cc1)C(=O)NC(=O)OCC | 13.6
7 | CCOC(=O)c1c(C)nc(C)c2c(=O)oc3ccccc3c12 | -0.0573
8 | CCOC(=O)c1oc2ccccc2c1NC(=O)C(C)(C)C | -9.6
9 | C=CCNC(=O)/C(=C/c1cccc([N+](=O)[O-])c1)NC(=O)c1ccccc1 | -31.2
10 | COc1ccc(-n2cc(C#N)c(=O)[nH]c2=O)cc1 | 33.5
11 | COc1cc(OC)cc(-c2c(C#Cc3ccsc3)c3cc(-c4ccc(OC)nc4)ccc3n2C)c1 | 11.7
12 | COc1ccc(C2/C(=C(\O)c3ccc4c(c3)OCCO4)C(=O)C(=O)N2CCCN(C)C)c(OC)c1 (centres unmarked) | -9.82
13 | COc1cccc(NC(=O)CN(C)CC(=O)c2c(N)n(Cc3ccccc3)c(=O)n(C)c2=O)c1 | -8.12
14 | O=C(Nc1ccc(NC(=O)C2CC2)cc1)c1ccco1 | 22.1
15 | C[C@H](N)c1nnc(SCc2ccc(Cl)cc2Cl)o1.Cl | -9.18
16 | O=C1CCCCN1CCCC(=O)N1CCCC(Nc2ccccc2)C1 (centres unmarked) | 13.3
17 | COC(=O)CC(NC(=O)c1cccs1)c1ccc(OC)c(OC)c1 (centres unmarked) | 16.9
18 | C=CCn1ccc(=NC=C(C#N)C#N)c2ccccc21 | -25.2
19 | N/C(=N\OC(=O)Cc1ccc(Cl)cc1)c1cccnc1 | -13.4
20 | O/N=C/c1cc(Br)cc(Br)c1OCc1ccccc1 | 14.2
21 | Cc1ccc(NC(=O)C2CCCCC2)cc1C | -17.7
22 | COc1c(Cl)cc(-c2noc(C)c2C(=O)NCc2ccccc2)cc1Cl | 2.35
23 | COc1ccc(-c2cc(=O)c3ccccc3s2)cc1 | 12.7

Row | SMILES | hERG current change (%, negative = inhibition) at 10uM [%]
24 | O=C(Cc1ccccc1[N+](=O)[O-])N/N=C/c1cccnc1 | 10
25 | CCCCNc1ccc(C(CC(N)=O)NC(=O)c2cc(C)cc(C)c2)cc1[N+](=O)[O-] (centres unmarked) | 15.1
26 | CCN(CC)C(=O)c1ccc2c(c1)C1C=CCC1C(C(=O)O)N2 (centres unmarked) | 11.9
27 | CC(C)Cn1nc(C(=O)NCc2ccccc2CN2CCCC2)c2ccccc2c1=O | -38.3
28 | CCc1nc(SCC(=O)N2CCCC2)c2ccccc2n1 | -12.6
29 | O=C(NN=C(Cc1ccccc1)Cc1ccccc1)C1CC1 | 10.4
30 | COc1cc(C(=O)ON=C2C3CC4CC(C3)CC2C4)cc(OC)c1OC | 11.5
31 | CN(C)S(=O)(=O)c1ccc(Nc2nc(C3CC3)nc3c2nnn3Cc2ccccc2Cl)cc1 | 18.8
32 | O=C(NC1CC2CCCC(C1)N2C(=S)Nc1ccccc1Cl)C1CC1 (centres unmarked) | -0.486
33 | Cc1ccc(-n2c(O)c(C=NCCN3CCOCC3)c(=O)[nH]c2=O)cc1 | 20.1
34 | CCOC(=O)c1cnc(-n2nc(C)cc2C)nc1Nc1ccc(N(C)C)cc1 | -0.0406
35 | COc1ccc(S(=O)(=O)N(CC(=O)N2CCOCC2)c2cc(Cl)ccc2OC)cc1OC | -16.6
36 | COCCN(C(=S)Nc1c(C)cccc1C)C(C)c1cccs1 (centres unmarked) | 0.794
37 | O=C1OCCN1C(=O)[C@H]1[C@H](c2ccc(F)cc2)C(c2ccc(F)cc2)=NN1c1ccccc1 | 5.58
38 | COc1ccc(NC(=S)NN2CCN(C)CC2)cc1 | 12.6
39 | COc1ccc(C(=O)NCC(c2ccccc2)N2CCCC2)cc1S(=O)(=O)N1CCOCC1 (centres unmarked) | -4.23
40 | Cc1ccc(-n2nnnc2-c2cccc(C)c2)cc1 | 1.24
41 | COc1ccc(C(=O)N/C(=C/c2ccccc2F)C(=O)NCCN2CCOCC2)cc1OC | 13.9
42 | CSc1ccc(/C=C/C(=O)NC(=O)c2ccccc2O)cc1 | 11.3
43 | C=CCn1c(SCC(=O)N2CCCC2)nc2cc(C(=O)NCC3CCCO3)ccc2c1=O (centres unmarked) | -31.8
44 | c1ccc(C2CC(c3ccccc3)n3ncnc3N2)cc1 (centres unmarked) | -17.3
45 | Cc1cc(NC(=O)CSc2nc(=O)n(CCCN(C)C)c3c2CCCC3)no1 | -7.06
46 | CN(/C(=N/S(=O)(=O)c1ccccc1)c1ccccc1)S(=O)(=O)c1ccccc1 | -14.5

Row | SMILES | hERG current change (%, negative = inhibition) at 10uM [%]
47 | COc1ccc([N+](=O)[O-])cc1NC(=O)COC(=O)C=C(C)C | 3.39
48 | O=C(Cn1c(=O)[nH]c2ccsc2c1=O)N1CCN(c2ccc(F)cc2)CC1 | -20.1
49 | CCOc1ccc(N(CC(=O)Nc2c(C)n(C)n(-c3ccccc3)c2=O)S(=O)(=O)c2ccccc2)cc1 | -55.2
50 | C=C(C)CSc1nnc(CCCCCNC(=O)OC(C)(C)C)o1 | 3.2
51 | Cc1ccccc1NC(=O)CCC(=O)OCC(=O)c1cccc([N+](=O)[O-])c1 | 8.03
52 | COC(=O)c1c(C(C)=O)c(C)n(C)c1C | 7.34
53 | COc1ccc(CCNc2ccc([N+](=O)[O-])cn2)cc1 | -12.3
54 | CCCCn1c(NS(=O)(=O)c2ccc(C)cc2)c(S(=O)(=O)c2ccccc2)c2nc3ccccc3nc21 | 4
55 | CC(C)(Nc1ccccc1)C(=O)c1ccccc1 | -6.13
56 | CCc1ccccc1NC(=O)C1CCCN1C(=O)NCc1ccccc1 (centres unmarked) | 15
57 | CNc1ncc(C(=O)c2ccc(-c3ccccc3)cc2)s1 | 13.1
58 | O=C(CSc1ccc(-c2ccccn2)nn1)NCc1ccc(Cl)cc1 | -10.9
59 | COc1ccc2nc(C)cc(SCC(=O)N/N=C/c3ccco3)c2c1 | -5.39
60 | COc1ccc(C2N(c3ccc(F)cc3)C(=O)C3CCCN32)cc1 (centres unmarked) | -9.09
61 | Cl.N=c1sccn1CC(=O)Nc1cccc(Oc2ccccc2)c1 | -65.5
62 | CCCC(=O)N1CCN(Cc2nc3cc([N+](=O)[O-])ccc3n2C)CC1 | -36.8
63 | N#CCN=C(c1ccccc1)c1ccccc1 | -7.38
64 | Cc1occc1C(=O)n1nnc2ccccc21 | -7.48
65 | COC(=O)c1c(NC(=O)C(C)C)sc2c1CCN(Cc1ccccc1)C2.Cl | -38.4
66 | Cc1nc(C(C)NC(=O)CCc2nnc(Cc3c[nH]c4ccccc34)o2)cs1 (centres unmarked) | 30.4
67 | COc1ccc(CNC(=O)CNC(=O)c2ccc(C(C)(C)C)cc2)cc1OC | 16.7
68 | CC(SCC(=O)NC(C)C1CC2CCC1C2)C(=O)O (centres unmarked) | -2.95
69 | COc1ccccc1/C=C/C(=O)NC(=S)NCC1CCCO1 (centres unmarked) | -1.48

Row | SMILES | hERG current change (%, negative = inhibition) at 10uM [%]
70 | COc1ccc(CCNC(=O)CCN2C(=O)COc3ccccc32)cc1OC | 6
71 | COc1cc(/C=C2\N=C3CCCCCN3C2=O)ccc1O | 2.47
72 | Cc1ccc(NC2=C(N3CCCCC3)C(=O)c3ccccc3C2=O)cc1 | 10.4
73 | COc1cccc(C2=CC(c3ccc(OC)c(OC)c3OC)n3nnnc3N2)c1 (centres unmarked) | 8.25
74 | CCN(CC)CCOC(=O)C(Cc1cccc2ccccc12)CC1CCCO1.O=C(O)C(=O)O (centres unmarked) | -53.8
75 | O=C(OCn1nnc2ccccc2c1=O)c1ccc(Br)o1 | 2.25
76 | Cc1cc(OCC(=O)NCc2ccncc2)ccc1Cl | 5.34
77 | COc1ccccc1CNC(=O)C(CC(C)C)NC(=O)C1CCC(C)CC1 (centres unmarked) | 4.27
78 | CCCCOc1ccc(/C=C/C(=O)OCC(=O)NC(=O)NCC(C)C)cc1OCC | -0.62
79 | O=C(Nc1cccc(C(F)(F)F)c1)C1CCN(S(=O)(=O)c2cccnc2)CC1 | -33.2
80 | C/C(=C\c1ccccc1)CN1CCN(C)CC1 | 16.2
81 | CC(=O)c1cc(C(=O)Nc2ccc(C(=O)O)cc2)oc1C | 18.1
82 | CCN(CC)C(=O)C(=O)c1cn(CC(=O)NCc2ccc3c(c2)OCO3)c2ccccc12 | 0.489
83 | C/C(Cn1nc([N+](=O)[O-])cc1C)=N\NC(=O)c1ccc(O)cc1O | 18.7
84 | Cc1cccc(CSc2nnc(-c3ccco3)n2C)c1 | -10.8
85 | CCCc1cc(C(=O)Cc2ccccn2)c(O)cc1O | 5.95
86 | O=C1c2ccccc2C(=O)c2c1cccc2N(CCO)CCO | -6.82
87 | CSC1=NCCN1C(=O)Cc1ccc(Cl)cc1 | 2.51
88 | COc1ccc(CCC(=O)NNC(=S)Nc2cccc(C(C)=O)c2)cc1 | 17.4
89 | CCn1cc(C(=O)OCC(=O)N(C)Cc2ccccc2)c(=O)c2ccc(C)nc21 | -11.1
